Reference: PubChem BioAssay AID624296 (National Center for Advancing Translational Sciences (NCATS), 2012)
Out of some 350,000 compounds screened, about 9,900 (2.8%) were called active. Inconclusive results, whose numbers are uncertain, are shown with a selection of clear calls. The call rests on the fitted dose curve; in most records, active means well fitted activation curve with a large enough effect; inconclusive means small, poorly fitted or top-dose-only effect; inactive means no such curve, though single readings can be large or run the other way. Potencies of inconclusive entries are left out as doubtful fits.

experiment: A quantitative high throughput screen for small molecules that induce DNA re-replication in MCF 10a normal breast cells.; further: nearly all actives have a fitted effect of over 50% in size; settings: MCF 10A DNA re-replication, Hoechst nuclear intensity, 48 h; series mostly up to 46.1 µM
Potency means the concentration at half of the fitted maximal effect; tags describe the fitted curve by direction and shape.

Question: With `Cc1ccc(C)c(N2CCN(C(=O)CCCn3c(=O)c4cccn4c4cccnc43)CC2)c1` as the compound, how does the Potency read?
Answer: Its Potency is inconclusive [activator, single point].

Question: With `O=C(CSc1nc2ccccc2o1)N/N=C/c1ccc(C(=O)O)cc1` as the compound, how does the Potency read?
Answer: Its Potency is inconclusive [activator, full curve, poor fit].

Question: For `NC(=O)c1cc([N+](=O)[O-])ccc1NCc1ccc(N)cc1`, which Potency is on record?
Answer: The Potency was inconclusive [activator, single point].

Question: With `Cc1ccc2nc(NC(=O)Cn3nc(C)c([N+](=O)[O-])c3C)sc2c1` as the compound, how does the Potency read?
Answer: The Potency was “inactive”.

Question: Which Potency does the source give for `Cc1cccc(C)c1N1CCN(CCn2c(=S)[nH]c3ccccc3c2=O)CC1` here?
Answer: The Potency was inconclusive [activator, single point].

Question: For `CN1C(C(=O)NCc2ccco2)CC2Cn3c(nc4cc5ccccc5cc43)C21` (centres undefined), which Potency is on record?
Answer: Its Potency is inconclusive [activator, full curve, poor fit].

Question: For `COc1ccc(C2N(C(=O)c3ccccc3)CCN2C(=O)c2ccc(C)cc2)cc1` (centres undefined), which Potency is on record?
Answer: The Potency was “inactive”.

Question: Which Potency does the source give for `COc1cccc(OCCCCN2CCCCC2)c1` here?
Answer: The Potency was inconclusive [activator, single point].

Question: With `Fc1ccc(OCCCCCCN2CCCC2)cc1` as the compound, how does the Potency read?
Answer: Its Potency is inconclusive [activator, partial curve].

Question: With `CCOc1ccccc1C(=O)Nc1cccc(-c2ccc3nncn3n2)c1` as the compound, how does the Potency read?
Answer: The Potency was “inactive”.

Question: Which Potency does the source give for `O=C(Nc1nnc(C2CC2)s1)c1cccc(S(=O)(=O)N2CCc3ccccc32)c1` here?
Answer: The Potency was inconclusive [activator, partial curve, poor fit].

Question: For `Cn1c(=O)c2c(nc(CN3CCc4ccccc4C3)n2Cc2ccccc2)n(C)c1=O`, which Potency is on record?
Answer: The Potency was inconclusive [activator, partial curve].

Question: For `CN(CCOc1ccccc1)CC(=O)Nc1cc([N+](=O)[O-])ccc1Cl`, which Potency is on record?
Answer: The Potency was inconclusive [activator, partial curve, poor fit].

Question: Which Potency does the source give for `N#CC(C#N)=C1C=C2C=C(N3CCCCC3)CCC2CC1` (centres undefined) here?
Answer: Its Potency is inconclusive [activator, partial curve, poor fit].

Question: For `CC1(C)Cc2c(sc3nc(C4CCCCC4)n(N)c(=O)c23)CO1`, which Potency is on record?
Answer: The Potency was inconclusive [activator, single point].

Question: Which Potency does the source give for `N#C/C(=C\C=C\c1ccccc1)C(=O)NCc1cccnc1` here?
Answer: Its Potency is inconclusive [activator, single point].

Question: Which Potency does the source give for `CC1(c2ccccc2)CC(C)(C)N2C(=O)/C(=C3\SC(=S)NC3=O)c3cccc1c32` (centres undefined) here?
Answer: The Potency was active: 3.26 µM.

Question: For `N#CC1=C(N)OC2=C(C(=O)CC(c3ccco3)C2)C1c1ccc(OCc2c(F)cccc2Cl)cc1` (centres undefined), which Potency is on record?
Answer: The Potency was inconclusive [activator, single point].

Question: For `Cc1cc(-c2ccc(S(=O)(=O)N3CCN(c4ccccc4F)CC3)s2)on1`, which Potency is on record?
Answer: The Potency was inconclusive [activator, partial curve, poor fit].

Question: With `Cc1nc(-c2ccc(F)cc2)c(CC(=O)N(C)CC(=O)Nc2ccc(F)cc2)s1` as the compound, how does the Potency read?
Answer: Its Potency is “inactive”.

Question: With `Cc1ccc2occ(/C=N/NC(=O)c3ccc(Cl)cc3)c(=O)c2c1` as the compound, how does the Potency read?
Answer: Its Potency is “inactive”.

Question: With `O=C(NCCc1nc(-c2ccccc2Cl)no1)c1ccccc1` as the compound, how does the Potency read?
Answer: The Potency was inconclusive [activator, single point].

Question: With `O=C1NC2c3c(I)sc(I)c3C(=O)C2O1` (centres undefined) as the compound, how does the Potency read?
Answer: Its Potency is active: 13 µM.

Question: With `CCOC(=O)C1(CCOc2ccccc2)CCN(Cc2nccn2CC)CC1` as the compound, how does the Potency read?
Answer: The Potency was inconclusive [activator, single point].

Question: For `COc1ccc(OC)c(COC(=O)c2cc([N+](=O)[O-])ccc2N2CCOCC2)c1`, which Potency is on record?
Answer: The Potency was inconclusive [activator, partial curve].

Question: With `CCN1C(=O)N[C@@H](c2cccs2)C(C(C)=O)=C1C` as the compound, how does the Potency read?
Answer: Its Potency is inconclusive [activator, full curve, poor fit].

Question: Which Potency does the source give for `C#CCN(Cc1ccco1)C(=O)c1ccc(OC2CCN(Cc3ccccn3)CC2)cc1` here?
Answer: The Potency was inconclusive [activator, single point].

Question: For `CCCCn1cnc2c(c1=O)c1nc3ccccc3nc1n2Cc1ccc2c(c1)OCO2`, which Potency is on record?
Answer: Its Potency is “inactive”.

Question: Which Potency does the source give for `c1ccc(-c2noc(C34CC5CC(CC(C5)C3)C4)n2)cc1` here?
Answer: Its Potency is active: 11.6 µM.

Question: With `Cc1c(NS(=O)(=O)c2cc(C(=O)N(C)Cc3ccccc3)ccc2Cl)c(=O)n(-c2ccccc2)n1C` as the compound, how does the Potency read?
Answer: The Potency was “inactive”.

Question: For `COc1cc(OC)c2c(-c3cccc(-c4ccc(OC)c(F)c4)c3)cc(=O)oc2c1`, which Potency is on record?
Answer: Its Potency is inconclusive [activator, full curve, poor fit].

Question: For `CCN(CC)S(=O)(=O)c1cc(C)ccc1NC(=S)Nc1cccnc1`, which Potency is on record?
Answer: Its Potency is inconclusive [activator, single point].

Question: For `CCc1cccc(N(C(=O)c2csnn2)C(C(=O)NC2CCCCC2)c2cccnc2)c1` (centres undefined), which Potency is on record?
Answer: Its Potency is “inactive”.

Question: Which Potency does the source give for `COc1ccccc1NC(=O)CSc1n[nH]c(Cc2ccccc2)n1` here?
Answer: The Potency was inconclusive [activator, single point].

Question: Which Potency does the source give for `Cc1cc(SCC(=O)c2ccc3c(c2)OCO3)nc2ccccc12` here?
Answer: Its Potency is “inactive”.

Question: Which Potency does the source give for `COc1ccc2c(c1OC)OCC2C` (centres undefined) here?
Answer: Its Potency is inconclusive [activator, single point].

Question: For `COc1ccc(-n2nnnc2SCC(=O)c2cc3ccccc3o2)cc1`, which Potency is on record?
Answer: Its Potency is inconclusive [activator, single point].

Question: Which Potency does the source give for `O=C(Nc1cccc(-c2cn3ccccc3n2)c1)c1cc2ccccc2oc1=O` here?
Answer: Its Potency is inconclusive [activator, single point].

Question: For `CN=C(C)c1c(O)c2ccccc2oc1=O`, which Potency is on record?
Answer: The Potency was inconclusive [activator, single point].

Question: For `C=CCNC(=O)c1n[nH]c2c1CC(C(C)(C)CC)CC2` (centres undefined), which Potency is on record?
Answer: The Potency was inconclusive [activator, full curve, poor fit].

Question: With `Cc1ccc(C(=O)NNc2ncnc3c2cnn3C)cc1` as the compound, how does the Potency read?
Answer: Its Potency is “inactive”.

Question: For `O=C(NNC(=O)c1ccccc1O)c1cccc(Br)c1`, which Potency is on record?
Answer: The Potency was “inactive”.

Question: Which Potency does the source give for `COCCCN1C(=O)c2ccc(C(=O)Nc3cccc(OC)c3)cc2C1=O` here?
Answer: Its Potency is inconclusive [activator, partial curve, poor fit].

Question: Which Potency does the source give for `CC1CCCCN1S(=O)(=O)c1ccc2c(c1)oc(=O)n2CC(=O)O` (centres undefined) here?
Answer: Its Potency is “inactive”.
